The list shows a part of the results.
Each compound was assayed on T1, C. trachomatis L2/434/Bu expressing GFP (CTL2-GFP). Settings: total inclusion area; 28.5 h, 10 µM; inhibitor.
T1 construct: L2/434/Bu GFP intracellular growth in HeLa cells
Set-up: species or system HeLa; C. trachomatis total inclusion area by high-content imaging, normalised to DMSO
Summary of the method: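 Imaging read-out: GFP inclusions and Hoechst nuclei captured by high-content imaging after fixation. Inclusion area/number = chlamydial growth; nuclei count = host cell viability. MIC calculated per earlier method.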

Compared with `COc1cc(NC(=O)COc2ccc3ccccc3c2)c(C(=O)O)cc1OC` [CBK264181], `COc1ccc(CNC(=S)Nc2cccc(C(F)(F)F)c2)cc1OC` [CBK266977] is lower in “% of control remaining” value: 102.879 for the first, 98.0442 for the second.

Compared with `OC1(c2cccnc2)CCN(CC2(c3ccc(Cl)cc3)CC2)CC1` [CBK282780], `CCNC(=O)N1CC2(CCN(Cc3ccc(Cl)c(Cl)c3)CC2)c2ccccc21` [CBK126690] is lower in “% of control remaining” value: 90.2078 for the first, 86.1698 for the second.

First: O=C(c1ccc2ncccc2c1)N1CCC(c2ccncc2)CC1 [CBK283684]
Second: O=C(CCCc1ccccc1)Nc1cccnc1N1CCNCC1 [CBK028256T]
The “% of control remaining” value of the first is lower: 80.6991 for the first, 85.9296 for the second.

Compared with `c1ccc(Nc2ccccc2Nc2ccccn2)nc1` [CBK261806], `COCCNc1nc(-c2cccc3cccnc23)cn2ccnc12` [CBK037314] is higher in “% of control remaining” value: 84.4656 for the first, 152.187 for the second.

First: Cn1cccc1CCC(=O)NC1CCN(Cc2ccccc2Cl)CC1 [CBK306814]
Second: O=C(CCN1CCCC1Cn1cncn1)NCCc1ccccc1 (stereo not shown) [CBK305677]
The “% of control remaining” value of the first is higher: 96.0012 for the first, 64.4748 for the second.

First: Cc1ccc(C)c(NC(=O)C2CN(S(=O)(=O)c3ccccc3)CCN2S(=O)(=O)c2ccccc2)c1 (stereo not shown) [CBK267349]
Second: CN1CCN(C2=NC(=O)CC(C(=O)Nc3ccccc3)N2)CC1 (stereo not shown) [CBK267884]
The “% of control remaining” value of the first is lower: 77.1896 for the first, 107.755 for the second.

Going from `CN(C)CCNC(=S)Nc1ccc([N+](=O)[O-])cc1` [CBK266964] to `CCN1CCCC1CNC(=O)c1cccc(Cl)c1` (stereo not shown) [CBK262621], the “% of control remaining” value rises from 90.2034 to 103.804.

First: Oc1cccc(/C=N/c2nnn[nH]2)c1 [CBK260977]
Second: CC(NC(=O)c1ccccc1)c1nnc(SCC(=O)N2CCOCC2)n1C (stereo not shown) [CBK269647]
The “% of control remaining” value of the first is higher: 107.817 for the first, 82.2586 for the second.

First: COCCNC(=O)C1CCN(c2nc3c(-c4cccc(C)c4)csc3c(=O)[nH]2)CC1 [CBK215629]
Second: COc1ccc(C(=O)N[C@@H]2CC[C@@]3(c4ccc(OC)c(OC)c4)CCN(C)[C@H]3C2)c(OC)c1 [CBK074247T]
The “% of control remaining” value of the first is higher: 109.446 for the first, 98.3302 for the second.

First: O=C(CSc1nnc2scc(-c3ccccc3)n12)Nc1nsc(-c2ccc(Cl)cc2)n1 [CBK266576]
Second: Cn1c(=O)c2c(nc(Oc3ccccc3Cl)n2Cc2cccc(C(F)(F)F)c2)n(C)c1=O [CBK265940]
The “% of control remaining” value of the first is higher: 108.883 for the first, 96.6108 for the second.

First: Fc1ccc(-c2cncc(NCCc3ccncc3)n2)c(F)c1 [CBK065810]
Second: Cc1cc(C)n(CCCn2cncc2-c2ccc3c(c2)CC(C)N3C)n1 (stereo not shown) [CBK281773]
The “% of control remaining” value of the first is lower: 97.1395 for the first, 126.486 for the second.
